According to PubChem BioAssay AID1030 (National Center for Advancing Translational Sciences (NCATS), 2008):
Out of some 220,000 compounds screened, about 16,000 (7.3%) were called active. Inconclusive results, whose numbers are uncertain, are shown with a selection of clear calls. Calls follow the shape of the dose curve; as a rule, active = well fitted inhibition curve with a large enough effect (not every such curve was filed as active); inconclusive = small, poorly fitted or top-dose-only effect, or another doubt; inactive = no such curve, though single readings can be large or run the other way. No potency is given beside an inconclusive call; the fits are too rough.

biological target: Aldehyde dehydrogenase 1A1 (Homo sapiens) (UniProt P00352); assay: qHTS Assay for Inhibitors of Aldehyde Dehydrogenase 1 (ALDH1A1); settings: Purified ALDH1A1, NADH fluorescence, propionaldehyde substrate; series mostly up to 75.3 µM; activity, negative = inhibition: at the top concentration;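 as to activity, negative = inhibition: plate controls were no enzyme wells and a reference inhibitor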
Chain of UniProt P00352 (P00352 whole entry, looked up): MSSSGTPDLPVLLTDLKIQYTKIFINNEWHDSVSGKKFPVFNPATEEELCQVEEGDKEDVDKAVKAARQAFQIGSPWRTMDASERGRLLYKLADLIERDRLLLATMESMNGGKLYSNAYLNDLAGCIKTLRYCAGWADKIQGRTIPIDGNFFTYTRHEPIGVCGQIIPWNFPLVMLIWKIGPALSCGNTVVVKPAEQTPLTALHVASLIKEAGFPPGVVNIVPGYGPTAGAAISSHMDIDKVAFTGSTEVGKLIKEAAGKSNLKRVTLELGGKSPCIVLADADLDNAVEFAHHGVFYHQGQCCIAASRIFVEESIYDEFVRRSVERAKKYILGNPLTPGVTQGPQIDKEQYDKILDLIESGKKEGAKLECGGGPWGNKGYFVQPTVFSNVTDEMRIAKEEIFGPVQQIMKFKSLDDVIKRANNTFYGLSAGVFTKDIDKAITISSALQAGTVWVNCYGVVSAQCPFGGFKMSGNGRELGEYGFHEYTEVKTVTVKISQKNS
Potency is read from the fitted curve at half-maximal effect; tags tell the direction and shape of the fitted curve.

SMILES	Potency	activity, negative = inhibition
Cc1cc(C)c2[nH]c(=O)c(CN(Cc3cccnc3)C(=S)NCCCN(C)C)cc2c1	inconclusive [inhibitor, single point]	
CCOC(=O)C1CCN(S(=O)(=O)C(F)(F)c2nc3ccccc3s2)CC1	inconclusive [inhibitor, partial curve]	
CCN(CC)CCCNC(=S)N1CCn2c(nc3ccccc32)C1		inactive: 6.62%
CCN(CC)c1ccc(C2C(C(=O)OCCOC)=C(C)NC3=C2C(=O)CC(C)(C)C3)cc1 (centres undefined)	inconclusive [inhibitor, single point]	
O=C(CCc1ccccc1)N1CCCN(C(=O)CCc2ccccc2)CC1		inactive: 2.73%
O=C(NCc1ccc2c(c1)OCO2)c1cc(-c2ccc(Cl)cc2Cl)on1	inconclusive [inhibitor, single point]	
Cc1onc(-c2c(F)cccc2Cl)c1C(=O)Nc1c(C)n(C)n(-c2ccccc2)c1=O	inconclusive [inhibitor, single point]	
O=C1C=C(NNC(=O)c2cccnc2)CC(c2ccco2)C1 (centres undefined)		inactive: -13.6%
COc1ccc(C(=O)N/C(=C\c2ccc([N+](=O)[O-])cc2)C(=O)NC(CCSC)C(=O)O)cc1 (centres undefined)		inactive: -10.9%
CCOC(=O)C1(Cc2cccc(F)c2)CCN(C(=O)c2ccoc2C)CC1	inconclusive [inhibitor, single point]	
Cc1noc(NS(=O)(=O)c2ccc(NC(=O)CS(=O)(=O)c3ccccc3)cc2)c1C		inactive: -1.5%
O=C(NCCc1c[nH]c2ccccc12)/C(=C\c1cccnc1)NC(=O)c1ccccc1F		inactive: -1.93%
CC1(C)CC(N2CCCC2)=CC(=[N+]2CCCCC2)C1		inactive: -2.22%
Cc1ccc(NS(=O)(=O)c2cc(-c3n[nH]c(=O)c4ccccc34)ccc2C)cc1	inconclusive [inhibitor, single point]	
COc1cc2c(cc1OC)CN(C(=O)CSc1nc(C)cc(C)c1C#N)CC2	inconclusive [inhibitor, single point]	
NS(=O)(=O)c1ccc(CCNC(=O)/C=C/c2cccc([N+](=O)[O-])c2)cc1		inactive: -3.14%
COc1cccc(-n2c(CN3CCN(c4ccccn4)CC3)nc3ccc([N+](=O)[O-])cc3c2=O)c1	inconclusive [inhibitor, single point]	
COC(=O)c1cc(N2C(=O)C3C(C2=O)C2(C)C=CC3(C)O2)ccc1Cl (centres undefined)	active: 0.112 µM	
CC1Cc2ccccc2N1C(=S)NC(=O)C1(C)CC1(Cl)Cl (centres undefined)		inactive: 4.22%
O=C(Nc1ccccc1)c1ccc[n+](Cc2ccc([N+](=O)[O-])cc2)c1	inconclusive [inhibitor, single point]	
CCN(CC)C(=S)NC(=O)c1cc(OC)c(OC)c(OC)c1	inconclusive [inhibitor, single point]	
COC(=O)C1=C(N)Oc2cc(C)n(Cc3cccnc3)c(=O)c2C1c1ccc(OC)c(OC)c1OC (centres undefined)		inactive: 1.13%
CCCCCC(=O)Nc1ccc2oc(-c3cncc(Br)c3)nc2c1	inconclusive [inhibitor, single point]	
CC1CCN(S(=O)(=O)c2cccc(C(N)=O)c2)CC1	inconclusive [inhibitor, single point]	
CN(Cc1ccc(OC(F)F)cc1)C(=O)c1ccc2nccnc2c1		inactive: 7.34%

SMILES	Potency	activity, negative = inhibition
COC(=O)C(F)(F)Sc1c(C)[nH]c2ccccc12	inconclusive [inhibitor, single point]	
CCCn1c(SCC(=O)NC(=O)NCc2ccco2)n[nH]c1=O		inactive: -14%
CCC(C(=O)OCC(=O)Nc1ccc(C(=O)Nc2ccc(OC)cc2)cc1)c1ccccc1 (centres undefined)		inactive: 3.04%
O=C(Nc1nc2nccc(-c3ccccc3)n2n1)C(Cl)(Cl)Cl	inconclusive [inhibitor, single point]	
S=c1[nH]nc(CSCc2ccc(Cl)cc2Cl)n1-c1ccccc1	active: 3.55 µM	
O=C(CCC(=O)OCC(=O)c1cccc([N+](=O)[O-])c1)Nc1cccc(Cl)c1Cl	inconclusive [inhibitor, single point]	
O=C(/C=C/c1ccccc1[N+](=O)[O-])N1CCN(C(=O)c2ccco2)CC1		inactive: -11.7%
CN(C)CCN1C(=O)c2oc3ccccc3c(=O)c2C1c1cccc(Br)c1 (centres undefined)	inconclusive [inhibitor, single point]	
C=CCNC(=S)NCc1ccc(CNC(=S)NCC=C)cc1		inactive: -9.53%
Fc1ccc(CSc2ccc(-c3cccs3)nn2)cc1		inactive: -2.83%
Cc1ccc(SCC(=O)Nc2cc([N+](=O)[O-])ccc2O)cc1	inconclusive [inhibitor, single point]	
COc1ccc(-c2noc(N3CCC(C(=O)N4CCN(c5ccccn5)CC4)CC3)n2)cc1	inconclusive [inhibitor, single point]	
O=C(c1cc([N+](=O)[O-])ccc1N1CCCCC1)N1CCCC1	active: 28.2 µM	
O=C(/C=C\c1ccc(O)c(O)c1)O[C@@H](Cc1ccc(O)c(O)c1)C(=O)O		inactive: -0.908%
CCOC(=O)Cn1cc(C(=O)c2ccco2)c2ccccc21	inconclusive [inhibitor, single point]	
C[N+]1(CC(=O)NNc2c3ccccc3nc3ccccc23)CCOCC1		inactive: 1.22%
CCOC(=O)C1=C(N)N2C(=O)CSC2=C(C(=O)OC)C1	inconclusive [inhibitor, single point]	
Cc1ccc(NC(=O)COC(=O)COc2ccc(Cl)cc2)c([N+](=O)[O-])c1	inconclusive [inhibitor, single point]	
COc1c(Cl)cc(C(=O)Nc2ccccc2-c2ccccc2)cc1Cl	active: 12.6 µM	
COCCSc1nnc(NC(=O)Cc2ccc(OC)cc2)s1	inconclusive [inhibitor, single point]	
COCCNC(=O)c1cnn2c(C(F)(F)F)cc(-c3ccc(C)cc3)nc12	inconclusive [inhibitor, single point]	
O=C(Nc1cccn(Cc2c(F)cccc2Cl)c1=O)NC1CCCCC1	active: 25.1 µM	
CCN1CCN(CC(=O)Nc2cc3c(cc2C(C)=O)OCO3)CC1	inconclusive [inhibitor, single point]	
CCC(=O)c1ccc(N2CCCCC2)c(F)c1		inactive: 3.38%
CSc1nc2ccc(Br)cc2[nH]1	inconclusive [inhibitor, single point]	

SMILES	Potency	activity, negative = inhibition
Cc1ccc(C#CC[N+](C)(C)CC#Cc2ccccc2)cc1	inconclusive [inhibitor, single point]	
COc1cc2cc(CN(CCc3cccc(C)c3)C(=S)NCCCN(C)C)c(=O)[nH]c2cc1OC	inconclusive [inhibitor, single point]	
O=C(CSc1nnnn1C1CCCCC1)N1CCN(C(=O)c2ccco2)CC1	inconclusive [inhibitor, single point]	
CCOCCCNc1nc2c(C)cccn2c(=O)c1/C=C1\SC(=S)N(C(C)CC)C1=O (centres undefined)	inconclusive [inhibitor, full curve]	
CCOCCNC(=O)c1ccc2c3c(cccc13)CC2	inconclusive [inhibitor, partial curve]	
O=C(O)c1ccc(Br)cn1	inconclusive [inhibitor, single point]	
Cc1ccc(OCC(=O)Nc2ccc(C)c(S(=O)(=O)N3CCCCC3)c2)c([N+](=O)[O-])n1	inconclusive [inhibitor, partial curve]	
COc1ccc(CCNC(=O)C2CCN(S(=O)(=O)c3ccc(OC)c(OC)c3)CC2)cc1		inactive: -1.18%
Cc1ccsc1/C=C\C1=NCCCN1C		inactive: 4.59% [at 20.9 µM]
COc1cc(/C=N/NC(=O)CCN2CCN(Cc3ccccc3)CC2)cc(OC)c1OC	inconclusive [inhibitor, partial curve]	
O=C(COc1ccc(Cl)cc1Cl)Nc1ccc2nc3n(c(=O)c2c1)CCCC3	inconclusive [inhibitor, partial curve]	
O=S(=O)(NCc1cccs1)c1cccc(S(=O)(=O)N2CCCCC2)c1	active: 8.91 µM	
c1nc(NC2CCNCC2)c2cc(-c3ccoc3)ccc2n1	inconclusive [inhibitor, partial curve]	
Cc1cccc(NC(=O)c2ccc(C(=O)Nc3cccc(C)c3)nc2)c1	inconclusive [inhibitor, single point]	
O=C1N[C@@H](Cc2ccccc2)C(=O)N2CCCC12 (some centres undefined)		inactive: 15.2% [at 120 µM]
Cc1c(C#N)c2ccccc2n1CC(=O)O	inconclusive [inhibitor, single point]	
CC(C)N(CCc1ccncc1)C(=S)Nc1ccc(F)c(Cl)c1		inactive: 1.39%
c1ccc(-c2nnsc2Sc2ccccn2)cc1	inconclusive [inhibitor, single point]	
COc1ccccc1C(=O)Nc1ncc2c(n1)CC(c1ccco1)CC2=O (centres undefined)	active: 8.91 µM	
CCN1CCN(c2ccc(NC(=O)c3cccc(OCc4ccccc4)c3)cc2)CC1		inactive: -2.38%
C=CCOc1ccc(C=Nc2ccc(OC)cc2)c(O)c1	inconclusive [inhibitor, partial curve]	
O=C(N/N=C/c1ccc(O)cc1)c1cccc(N/N=C/c2ccc(O)cc2)c1	active: 22.4 µM	
N#CC(C#N)=C1CCc2ccccc2N1	inconclusive [inhibitor, single point]	
CC1=CCC(C(=O)O)(C(=O)N/N=C/c2cccs2)C(c2ccc([N+](=O)[O-])cc2)C1 (centres undefined)		inactive: -11.7%
